From PubChem BioAssay AID1240 (Sanford-Burnham Center for Chemical Genomics, 2008)
The whole screen tested about 50,000 compounds, of which about 800 (1.6%) showed an effect of 50% or more. The list shows a part of the results.

Target: Bcl-2-like protein 10 (Homo sapiens) (UniProt Q9HD36)
Assay: TR3 peptide-Bcl-B binding displacers, biochemical primary FP assay, phenotype converters (AID 1240);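 further: 0% = Bcl-B with tracer peptide and DMSO and 100% = tracer peptide lacking Bcl-B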
Conditions: GST-Bcl-B / FITC-TR3 peptide fluorescence polarization; stronger effect = higher value; compound at 3.75 mg/L

Chain of UniProt Q9HD36 (Q9HD36 whole entry, looked up): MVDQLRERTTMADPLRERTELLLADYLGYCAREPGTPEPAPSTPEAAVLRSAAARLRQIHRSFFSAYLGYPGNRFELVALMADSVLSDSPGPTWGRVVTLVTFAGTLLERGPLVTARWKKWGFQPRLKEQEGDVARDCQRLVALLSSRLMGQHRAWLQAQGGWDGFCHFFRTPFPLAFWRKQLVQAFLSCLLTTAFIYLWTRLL

| SMILES | displacement |
| --- | --- |
| COc1ccc(C(=O)n2nc(C)c(Sc3ccccc3)c2C)cc1 | 4.4% |
| Cc1sc2nc(-c3ccc(C(C)(C)C)cc3)oc(=O)c2c1C | 7.5% |
| O=C(CSc1nc2ccccc2o1)Nc1nc2c(s1)CCCC2 | 6.9% |
| CC1=C(C#N)c2nc(N)c(C#N)c(C)c2/C1=C\c1ccco1 | 0% |
| CC(C)N(C(=O)c1ccc(C(N)=O)cc1)C(C)C | 5.7% |
| CC(=O)Oc1cccc(N2C(=O)CCC2=O)c1 | -1.9% |
| O=C(CC(Nc1cccc(Cl)c1)c1ccc(F)cc1)c1ccccc1 (stereo not given) | 10.6% |
| COc1ccc(S(=O)(=O)N2CCN(C3CC4CCC3C4)CC2)cc1 (stereo not given) | -1.9% |
| NC(=O)c1c(NC(=O)c2ccccc2F)sc2c1CCCCCC2 | -2.5% |
| Cc1cc(Cl)ccc1OCC(=O)NC1CC(C)(C)NC(C)(C)C1 | 11.8% |
| CC1CCN(C(=O)Nc2ccccc2)CC1 | -8.9% |
| O=C(Nc1ccc(Cc2ccncc2)cc1)Nc1cccc2ccccc12 | -14.3% |
| COC(=O)c1ccccc1P(=O)(c1ccccc1)c1ccccc1 | 5.5% |
| Cc1ccc(C(=O)N2CCN(C(=O)CN3CCCC3)C2)cc1 | 13.5% |
| CCOC(=O)N1CCN(c2cc(N3CCC(C)CC3)c(F)cc2[N+](=O)[O-])CC1 | -2.7% |
| O=C(O)CCCN1C(=O)C(=O)/C(=C(/O)c2ccccc2)C1c1ccc(Br)cc1 (stereo not given) | -20.6% |
| CCN(CC)C(=O)COc1ccc2oc(C)c(C(=O)OC(C)C)c2c1 | 8.5% |
| N#CC1=C(N)OC2=C(C(=O)CCC2)C1c1ccc2c(c1)OCO2 (stereo not given) | 11.4% |
| Cc1[nH]nc2c1C(c1cc(Br)cs1)C(C#N)=C(N)O2 (stereo not given) | -2.4% |
| S=C(Nc1ccccc1)NC1CCCC1 | 8.3% |
| COc1ccccc1N1CCN(C(=O)NC2CCCCC2)CC1 | 2.7% |
| O=C(Nc1cc(Cl)c(Cl)cc1Cl)c1ccccc1[N+](=O)[O-] | 4.6% |

| SMILES | displacement |
| --- | --- |
| CC(C)=CCCC(C)NCc1ccco1 (stereo not given) | -8.8% |
| Cc1ccc(N(CC(=O)Nc2ccccc2Br)S(C)(=O)=O)cc1Cl | 15.8% |
| Clc1ccc(N2CCN(N=Cc3cccc(OCc4ccccc4)c3)CC2)cc1 | 11.5% |
| CC(C)(C)C1CCc2c(sc(NC(=O)c3ccc(F)cc3)c2C(N)=O)C1 (stereo not given) | -0.6% |
| Cc1nn(-c2ccccc2)c2sc(C(=O)N(C)c3ccccc3)cc12 | 8.2% |
| O=C(CN1CCCCCC1)Nc1cccc2c1OCO2 | -11.4% |
| O=C(COc1ccccc1[N+](=O)[O-])Nc1cccc(-c2nc3ncccc3o2)c1 | 7.2% |
| Cc1ccc(S(=O)(=O)N(CC(=O)NC2CCCC2)c2cccc(Cl)c2)cc1 | -1.5% |
| CN1CCc2c(sc3c2C(=O)NC(c2ccc(-c4ccccc4[N+](=O)[O-])o2)N3)C1 (stereo not given) | 33% |
| CCCOC(=O)C1=C(C)NC2=C(C(=O)CC(C)(C)C2)C1c1ccc(N(C)C)cc1 (stereo not given) | 3.4% |
| O=C(OCc1ccccc1)Sc1nnc(-c2ccc(Br)cc2)o1 | 14% |
| COc1ccc(N2C(=O)CC(Cc3ccc(Br)cc3)C2=O)cc1 (stereo not given) | 15% |
| COc1ccc(OCC(=O)Nc2ccc(NC(=O)c3ccccc3)cc2)cc1 | 12.6% |
| O=C(c1ccc(N2CCN(C(=O)c3ccccc3Br)CC2)cc1)c1cccc(F)c1 | 1% |
| NNC(=O)C1CCC(c2ccccc2)CC1 (stereo not given) | -6.6% |
| COc1ccc(N2C(=O)c3cccc4c(NC(CO)(CO)CO)ccc(c34)C2=O)cc1 | 43.6% |
| O=C(NNC1=C(C(=O)C(F)(F)F)CCC1)c1cccc(Cl)c1 | -19.1% |
| O=C(NC(=S)Nc1ccc(NC(=O)c2ccccc2)cc1)c1ccc(Cl)cc1 | 3.5% |
| O=C1c2cccc3c(Br)ccc(c23)C(=O)N1Nc1ccccc1 | 8.2% |
| Cc1ccccc1C(=O)Nc1sc2c(c1C(=O)N1CCOCC1)CCCCC2 | -5.4% |
| CCc1cc(C(=O)N=Nc2c(O)[nH]c3ccc(Br)cc23)c2ccccc2n1 | 12.8% |
| COc1ccc(-c2noc(-c3ccco3)n2)cc1 | 0.3% |

| SMILES | displacement |
| --- | --- |
| O=C1N/C(=N/N=C\c2ccco2)SC1Cc1ccc(SC(F)F)cc1 (stereo not given) | -20.8% |
| Cc1ccc(OCC(=O)Nc2ccc(I)cc2Cl)c(C)c1 | -18.3% |
| CCN(CC)CCSc1nc2sc3c(c2c(=O)n1-c1ccccc1)CC(C)(C)OC3 | -5.6% |
| CCCCNc1cc(C)oc(=O)c1C(C)=O | -6.8% |
| Cc1ccc(C(=O)CSc2nc3ccccc3c(=O)n2-c2ccccc2)cc1 | 11.8% |
| CC/C(C)=N/Nc1nc(-c2ccccc2)c(C)s1 | -30.1% |
| COc1cccc(CN2CCN(C3CCCCC3C)CC2)c1OC (stereo not given) | 0.8% |
| O=C(c1ccc(Cl)cc1)C(Sc1nnnn1-c1ccccc1)c1ccc([N+](=O)[O-])cc1 (stereo not given) | 28.8% |
| COCCCNC(=O)COc1ccccc1C | 3.2% |
| Fc1cnc(N2CCOCC2)nc1N1CCN(c2ccccc2)CC1 | 3.9% |
| CC(C)(C)c1cc(C2=C(N3CCOCC3)C(=O)c3ccccc3C2=O)cc(C(C)(C)C)c1O | 11.6% |
| CC(C)(C)c1ccc(C(=O)N/C(=C/c2ccc(Br)cc2)C(=O)NN)cc1 | -53.2% |
| COc1ccc(-c2nnc(-c3ccc(Cl)cc3)o2)cc1 | 12.1% |
| CC1=NN(C(=N)c2ccccc2)C(C)(O)C1 (stereo not given) | -25.3% |
| Cc1cc(/C=N/NC(=O)CC#N)c(C)n1-c1cc(Cl)ccc1Cl | -8.3% |
| O=C1C(=O)N(Cc2ccccc2)C(c2ccccc2)/C1=C(/O)c1ccccc1 (stereo not given) | 0.2% |
| C/C(=N/OCc1nc2c3c4c(sc3ncn2n1)CCCC4)c1ccc(C)cc1 | 39.3% |
| O=C1C2C3C=CC(CC3)C2C(=O)N1c1ccc(Br)cc1[N+](=O)[O-] (stereo not given) | 16.1% |
| O=C1NC(=O)N(c2cccc(F)c2)C(=O)/C1=C/c1ccc(OCc2cccc(C(=O)O)c2)cc1 | 9.2% |
| c1ccc2c(N3CCCCCC3)nc(-c3ccncc3)nc2c1 | -11.3% |
| COc1ccc(/C=C/C(=O)Nc2ccc(NC(=O)c3ccco3)c(OC)c2)cc1 | 9.7% |
| CC(C)(C)c1ccc(OCC(=O)Nc2cccc(NC(=O)c3cccc(Cl)c3)c2)cc1 | 3.2% |

| SMILES | displacement |
| --- | --- |
| Cc1cc(OCC(=O)Nc2cccc(S(N)(=O)=O)c2)ccc1Cl | 0% |
| O=C(O)c1ccccc1-c1ccccc1C(=O)Nc1ccc(I)cc1 | -9.1% |
| COc1ccc(NC(=O)C2C(C(=O)O)C3C=CC2C32CC2)cc1 (stereo not given) | -0.9% |
| COc1cccc2cc(-c3nc(-c4ccc(Cl)cc4Cl)cs3)c(=O)oc12 | -11.5% |
| O=C(/C=C/c1ccccc1Cl)NC(c1ccccc1)c1ccccc1 | 2.1% |
| CCOC(=O)c1ccccc1NC(=O)CN(c1ccc(Br)cc1)S(C)(=O)=O | -5% |
| COc1ccc(N2C(=O)/C(=C/c3ccc(-c4ccccc4[N+](=O)[O-])o3)SC2=S)cc1 | 11.9% |
| CCCCC(CC)CNC(=O)COc1cc(C)c(Cl)c(C)c1 (stereo not given) | 4.2% |
| O=C(Nc1ccc(F)cc1F)c1cnn2c1NC(c1cccs1)CC2C(F)(F)F (stereo not given) | 2.3% |
| COc1ccc(/C=C2\SC(=O)N(CCc3nnc(N)s3)C2=O)cc1 | 10.5% |
| CCOc1ccc(N2C(=O)NC(=O)/C(=C\c3ccc(-c4ccccc4C(=O)O)o3)C2=O)cc1 | 14.1% |
| COc1ccc(-c2nc(-c3ccc(Cl)cc3)no2)cc1 | 3.1% |
| CCCOc1ccc(C(=O)Nc2ncc(Cc3cccc(C(F)(F)F)c3)s2)cc1 | 0.4% |
| O=C(CSc1nc2ccc([N+](=O)[O-])cc2s1)N1CCOCC1 | 1.4% |
| NC(=O)c1c(NC(=O)c2ccccc2Cl)sc2c1CCC2 | -3.6% |
| COC(=O)c1ccc(NC(=O)CC2Nc3ccccc3NC2=O)cc1 (stereo not given) | 108% |
| Cc1ccc(/C(N)=N/OC(=O)COc2ccccc2C)cc1 | -4.5% |
| CCN(CC)S(=O)(=O)c1cc(C(=O)NC2CCCCC2)ccc1C | -8% |
| COc1ccc(/C=C/C(=O)Nc2ncc(Cc3ccccc3Cl)s2)cc1 | -17.4% |
| COc1ccc(S(=O)(=O)N2CCN(Cc3ccco3)CC2)cc1 | 11.1% |
| CCOc1ccccc1NC(=O)c1c(NC(=O)c2cccc(F)c2)sc2c1CCCCC2 | 0.3% |
| O=C(NCc1cccc2ccccc12)c1ccccc1C(F)(F)F | -3.8% |

| SMILES | displacement |
| --- | --- |
| COc1ccccc1N1CCN(/N=C\c2ccccc2C(F)(F)F)CC1 | -15.2% |
| Cc1ccsc1/C=C1\SC(=S)N(CC2CCCO2)C1=O (stereo not given) | 1% |
| CCOc1cc(OCC)cc(C(=O)Nc2ccccc2C(=O)OC)c1 | -7.8% |
| CCc1ccc(N2C(=O)/C(=C/c3ccc(OCC(=O)O)c(OC)c3)C(=O)NC2=S)cc1 | -9.5% |
| CCc1c(C)sc(NC(=O)CCc2ccc(OC)cc2)c1C(=O)OC | -0.4% |
| Cc1c(NS(=O)(=O)c2cccc3c2C(=O)c2ccccc2C3=O)c(=O)n(-c2ccccc2)n1C | 5.4% |
| Cc1cccc(NC(=S)NC(=O)COc2ccccc2)c1 | 12.1% |
| COc1cc(NS(=O)(=O)c2ccc(NC(=O)/C(=C\c3ccccc3OC)NC(=O)c3ccccc3)cc2)nc(OC)n1 | 4.5% |
| CCc1ccc(-c2ncnn2-c2ccc(Cl)cc2)cc1 | 12.4% |
| COc1cc(NC(=O)c2cccs2)c(OC)cc1Cl | -7.4% |
| CC1(C)CC(NC(=O)COc2ccc(Br)cc2)CC(C)(C)N1 | 0.7% |
| CC(=O)Nc1ccc(C2(O)COc3ccccc3O2)cc1 (stereo not given) | 8.9% |
| Cc1occc1C(=O)Nc1ccc(C(=O)O)cc1 | -1.9% |
| CCN(CC)CCCNS(=O)(=O)c1ccc([N+](=O)[O-])cc1 | -5.3% |
| CC(=O)Oc1ccc2occ(C(=O)c3ccccc3)c2c1 | -2.8% |
| O=C(Nc1ccc(Nc2ccccc2)cc1)c1ccccc1[N+](=O)[O-] | 10.4% |
| O=C(Cc1cccs1)Nc1cccc(C(F)(F)F)c1 | 10.7% |
| CCCCCC(=O)NNC(=O)c1ccco1 | -2% |
| COC(=O)c1ccc(C=NN2CCN(Cc3ccccc3)CC2)cc1 | 21.9% |
| COc1ccccc1C(=O)Nc1ncc(S(=O)(=O)c2ccc([N+](=O)[O-])cc2)s1 | -7% |
| Clc1ccc(N2CCN(N=Cc3cccc4ccccc34)CC2)cc1 | -7.4% |
| CCOc1cc(/C=C2/C(=O)NC(=O)N(c3ccccc3)C2=O)ccc1OCc1ccc([N+](=O)[O-])cc1 | 75.9% |
